# Reference: PubChem BioAssay AID1347073 (National Center for Advancing Translational Sciences (NCATS), 2019)
# Screen size: about 45,000 compounds; about 200 (0.44%) were called active. Inconclusive results (about 7%) are left out. Calls come from the whole dose curve; as a rule, active = well fitted activation curve with a large enough effect; inconclusive = small, poorly fitted or top-dose-only effect; inactive = no such curve, though single readings can be large or run the other way. The list shows a part of the results.
# Test: qHTS of TDP-43 Inhibitors: NCGC Sytravon Library Screen; note: 0% is about no effect; nearly all actives have a fitted effect of over 55% in size
# Settings: yeast TDP-43 toxicity rescue, BacTiter-Glo growth, 24 h; series mostly up to 46.1 µM; growth rescue (activation): at the top concentration
# Method in brief: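 TDP-43-expressing yeast, pregrown in raffinose, seeded at OD600 0.02 in galactose medium with compound for 24 hr at 30 deg C. Growth read by BacTiter-Glo luminescence, so rescue of toxicity appears as activation.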
row,Structure (SMILES),growth rescue (activation)
1,COc1ccc(NC(=O)c2cccc(N3C(=O)C4C5C=CC(C5)C4C3=O)c2)cc1 (centres undefined),inactive: 20.2%
2,CCc1ccccc1NC(=O)CN1CCN(CC(=O)Nc2cc(C)ccc2OC)CC1,inactive: -20.1%
3,O=C(N/N=C/c1cccc([N+](=O)[O-])c1)c1ccc(Br)cc1,inactive: 4.36%
4,COc1cc2c(cc1OC)C1Cc3ccc(OC)c(OC)c3CN1CC2 (centres undefined),inactive: 23.4%
5,Cc1cc(=O)[nH]c(SCC(=O)N2CC3(C)CC2CC(C)(C)C3)n1 (centres undefined),inactive: -11.4%
6,CCN(CC)S(=O)(=O)c1ccc(Cl)c(NC(=O)COC(=O)c2cc(-c3ccccc3Cl)nc3ccccc23)c1,inactive: 5.51%
7,Cc1cc2c(c(SCC(=O)NCc3ccccc3Cl)n1)C(=O)OC2,inactive: 7.25%
8,Cc1cccc(/C(N)=N/OC(=O)Cc2ccccc2)c1,inactive: 14.4%
9,O=C(CSc1nc2ncc(Cl)cc2[nH]1)N(Cc1ccccc1)C1CCS(=O)(=O)C1 (centres undefined),inactive: 1.22%
10,CC(=O)N1CCN(C(=O)COC(=O)c2ccc(S(C)(=O)=O)cc2)CC1,inactive: 15.8%
11,O=C(O)c1ccccc1-c1ccccc1C(=O)Nc1cccc(Br)c1,inactive: -0.698%
12,O=C1NC(=Nc2ccccc2)SC1Cc1cccc(Cl)c1Cl (centres undefined),inactive: 3.34%
13,COc1ccc(/C=N/Nc2nc3ccccc3[nH]2)cc1OC,inactive: 19.4%
14,COc1ccc(-c2nnc(NC(=O)c3ccco3)s2)cc1,inactive: 9.16%
15,CN(C)c1ccc(CN2CCC(C(=O)NC(c3ccc(Cl)cc3)c3cnccn3)CC2)cc1 (centres undefined),inactive: -11.4%
16,Cc1ccc([N+](=O)[O-])cc1NC(=S)NC(=O)c1cccnc1,inactive: -1.68%
17,Cn1nccc1C(=O)Nc1cccc(C(F)(F)F)c1,inactive: -0.681%
18,Cc1ccc(C(=O)N(Cc2cccnc2)Cc2cc3cc(C)ccc3n3nnnc23)cc1,inactive: 4.29%
19,FC(F)(F)c1cccc(Cc2noc(CN3C[C@@H]4CCC[C@H]3C4)n2)c1,inactive: 7.09%
20,Cc1nc(COc2ccc(C(=O)Nc3ccccc3N3CCOCC3)cc2)cs1,inactive: 22%
21,O=C(NC(Cc1ccccc1)C(=O)O)/C(=C/c1ccccc1)NC(=O)c1ccc(Br)o1 (centres undefined),inactive: 7.48%
22,O=C(CCCN1C(=O)CSc2ncccc21)N1CCN(c2cccc(C(F)(F)F)c2)CC1,inactive: 14%
23,Cc1cccc(C(=O)N[C@H](C(=O)Nc2nc(C)cs2)C(C)C)c1,inactive: 4.6%
24,CC1CN(c2nc(N(C)c3ccccc3)nc(N)c2[N+](=O)[O-])CC(C)O1 (centres undefined),inactive: 22.2%
25,Cc1cccc(NC(=O)CCS(=O)(=O)c2ccccc2)n1,inactive: 14%
26,O=c1[nH]ncc(N/N=C\c2ccc(O)cc2O)c1Cl,inactive: -9.1%
27,COc1ccc(/C=C/C(=O)OCC(=O)NC2CCCC(C)C2C)cc1S(=O)(=O)N1CCOCC1 (centres undefined),inactive: 11.2%

row,Structure (SMILES),growth rescue (activation)
1,Cc1csc(SCC(=O)NCc2ccccc2)n1,inactive: 17.3%
2,O=C(O)C(Cc1ccccc1)n1cnnn1 (centres undefined),inactive: 7.4%
3,FC(F)(F)c1cccc(N/N=C/c2ccccc2)c1,inactive: 35.3%
4,O=C(O)CCC(=O)N1CN2CN(C(=O)CCC(=O)O)CC([N+](=O)[O-])(C2)C1,inactive: 6.23%
5,COc1ccc(C2c3ccc4ccccc4c3Oc3ncn(Cc4ccco4)c(=N)c32)cc1OC (centres undefined),inactive: 24.1%
6,Cc1cccc(N2CCN(S(=O)(=O)c3ccc(Cl)nc3)CC2C)c1 (centres undefined),inactive: 7.48%
7,O=C1/C(=C/c2ccco2)CCC1C1CCCC1 (centres undefined),inactive: -0.563%
8,O=S(=O)(c1ccc2ccccc2c1)N1CCN(C2Cc3ccccc3C2)CC1,inactive: -4.97%
9,COc1cccc(-n2c(=O)c3ccccc3n3c(=S)[nH]nc23)c1,inactive: 11%
10,O=C1c2ccccc2C(O)(c2ccccc2)N1C1CC1 (centres undefined),inactive: 23.2%
11,O=C(NC1CCOc2ccccc21)C1CCCC1 (centres undefined),inactive: 2.71%
12,COc1ccc(NC(=O)C2(C)CCCN(C(C)C)C2)cc1F (centres undefined),inactive: 3.18%
13,Cc1ccsc1CN(C(=O)COc1ccc(Br)cc1)C1CCS(=O)(=O)C1 (centres undefined),inactive: 12.2%
14,COc1ccc(C(=O)N2CCCC2(C)C(=O)O)cc1C(F)(F)F (centres undefined),inactive: 8.44%
15,CCCc1ccc(C(O)c2ncc(-c3cccc(C)c3)[nH]2)cc1 (centres undefined),inactive: 17%
16,Cc1nn(Cc2ccccc2)c(C)c1CNC(=O)CN=C1NS(=O)(=O)c2ccccc21,inactive: -5.33%
17,COC(=O)c1sc(OC)cc1OCc1ccc(C)cc1,inactive: 0.861%
18,COc1cc(NC(=O)CCC(=O)OCCCC(F)(F)C(F)(F)F)nc(OC)n1,inactive: 8.27%
19,CC(Oc1ccc(Br)cc1)C(=O)NCCCN1CCCC1=O (centres undefined),inactive: -2.95%
20,O=C(c1c(F)cccc1F)N1CCCC(c2nc(-c3cccs3)no2)C1 (centres undefined),inactive: 11.9%
21,O=C(NC(Cc1ccccc1)C(=O)O)/C(=C\c1ccc(Cl)cc1)NC(=O)c1ccccc1 (centres undefined),inactive: -9.08%
22,COc1ccc(NC(=S)NC(=O)c2cc3ccccc3o2)c(OC)c1,inactive: 16.1%
23,CC(NC(=O)COC(=O)c1cccc(S(=O)(=O)N2CCCC2)c1)c1ccccc1 (centres undefined),inactive: 5.1%
24,COC(=O)CN(c1ccc(OCc2ccccc2)cc1)S(C)(=O)=O,inactive: 19.3%
25,CCCc1n[nH]c(=O)c2c1nnn2Cc1ccccc1F,inactive: -11.7%
26,NS(=O)(=O)c1ccc(CCNC(=S)NC2CCCCC2)cc1,inactive: 21.3%
27,N#Cc1ccc(OCC(=O)N/N=C2/CC(c3ccccc3)Oc3ccccc32)cc1 (centres undefined),inactive: 3.46%
